The supplement of paper PMC4967469

Legend:
Assay in all cases: Viability of human cancer cell lines after 72 h of drug (GDSC screen)
GNF-2 = compound: NC(=O)c1cccc(-c2cc(Nc3ccc(OC(F)(F)F)cc3)ncn2)c1 [GNF-2]; conditions: top dose 1.28 µM; top dose inferred
Procedure: (§1)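 Human cancer cell lines in 384-well plates, medium with 10% serum, drug for 72 h over a 256-fold dose range (nine 2-fold or five 4-fold steps up to the top dose). Adherent lines were fixed and stained with the nucleic acid dye Syto60, suspension lines read with resazurin; signal relative to control wells, capped at 0 and 100%. One two-parameter sigmoid per drug and line, fitted in a mixed model over all curves with the slope shared within a line.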

AUY922 = compound: CCNC(=O)c1noc(-c2cc(C(C)C)c(O)cc2O)c1-c1ccc(CN2CCOCC2)cc1 [AUY922]; conditions: top dose 0.256 µM; top dose inferred
Procedure: as §1

T0901317 = compound: O=S(=O)(c1ccccc1)N(CC(F)(F)F)c1ccc(C(O)(C(F)(F)F)C(F)(F)F)cc1 [T0901317]; conditions: top dose 10.24 µM; top dose inferred
Procedure: as §1

MP470 = compound: S=C(NCc1ccc2c(c1)OCO2)N1CCN(c2ncnc3c2oc2ccccc23)CC1 [MP470]; conditions: top dose 20 µM; top dose inferred
Procedure: as §1

Bicalutamide = compound: CC(O)(CS(=O)(=O)c1ccc(F)cc1)C(=O)Nc1ccc(C#N)c(C(F)(F)F)c1 [Bicalutamide]; conditions: top dose inferred
Procedure: as §1

TW-37 = compound: CC(C)c1ccccc1Cc1cc(C(=O)Nc2ccc(S(=O)(=O)c3ccccc3C(C)(C)C)cc2)c(O)c(O)c1O [TW-37]; conditions: top dose 5 µM
Procedure: as §1

KIN001-270 = compound: Cc1ccc(Nc2cc(-c3cccc(N4C(=O)c5ccccc5C4=O)c3)ncn2)cc1NS(C)(=O)=O [KIN001-270]; conditions: top dose 20 µM; top dose inferred
Procedure: as §1

Gemcitabine = compound: Nc1ccn([C@@H]2O[C@H](CO)[C@@H](O)C2(F)F)c(=O)n1 [Gemcitabine]; conditions: top dose 1.024 µM
Procedure: as §1

LFM-A13 = compound: C/C(O)=C(\C#N)C(=O)Nc1cc(Br)ccc1Br [LFM-A13]; conditions: top dose 16 µM; top dose inferred
Procedure: as §1

[1] = top dose 1.024 µM, screen: GDSC drug entry 150
[2] = top dose 10 µM, screen: GDSC drug entry 1502

Cell Line	AUC (GNF-2)	IC50 (GNF-2) [nM]	AUC (AUY922)	IC50 (AUY922) [nM]	AUC (T0901317)	IC50 (T0901317) [nM]	AUC (MP470)	IC50 (MP470) [nM]	AUC (Bicalutamide; [1])	IC50 (Bicalutamide; [1]) [nM]	AUC (Bicalutamide; [2])	IC50 (Bicalutamide; [2]) [nM]	AUC (TW-37)	IC50 (TW-37) [nM]	AUC (KIN001-270)	IC50 (KIN001-270) [nM]	AUC (Gemcitabine)	IC50 (Gemcitabine) [nM]	AUC (LFM-A13)	IC50 (LFM-A13) [nM]
LNCaP-Clone-FGC (prostate, adherent)	0.984	> 1280	0.683	56.2	0.962	> 10200	0.752	7500	0.975	> 1020	0.882	> 10000	0.626	735	0.957	> 20000	0.83	774	0.947	> 16000
TE-10 (oesophagus, adherent)	0.944	> 1280	0.542	20.8	0.986	> 10200	0.98	> 20000	0.988	> 1020	0.981	> 10000	0.697	1100	0.958	> 20000	0.327	21.3	0.984	> 16000
LB1047-RCC (kidney, adherent)	0.977	> 1280	0.614	34.3	0.973	> 10200	0.895	> 20000	0.938	> 1020	0.975	> 10000	0.492	297	0.973	> 20000	0.167	5.28	0.89	> 16000
HD-MY-Z (Hodgkin lymphoma, adherent)	0.985	> 1280	0.698	57.7	0.962	> 10200	0.903	> 20000	0.986	> 1020	0.947	> 10000	0.53	377	0.914	> 20000	0.358	25.8	0.983	> 16000
HT-144 (melanoma, adherent)	0.943	> 1280	0.275	3.39	0.981	> 10200	0.905	> 20000	0.982	> 1020	0.965	> 10000	0.43	196	0.968	> 20000	0.175	5.74	0.975	> 16000
SCC-15 (head and neck, adherent)	0.978	> 1280	0.574	27.3	0.977	> 10200	0.95	> 20000	0.98	> 1020	0.959	> 10000	0.479	269	0.932	> 20000	0.604	136	0.923	> 16000
NCI-H322M (lung adenocarcinoma, suspension)	0.983	> 1280	0.975	> 256	0.987	> 10200	0.973	> 20000	0.984	> 1020	0.981	> 10000	0.889	> 5000	0.987	> 20000	0.983	> 1020	0.977	> 16000

The IC50 comes from the fitted curve, where viability falls to half of the control; a fit beyond the top or the lowest dose is shown as a bound at that dose. AUC, from the same fit, is the share of area under the viability curve across the 256-fold dose range; values near 1 show little effect. For some assays here: Any top dose called inferred was calculated from the reported fits. For some assays here: Where an entry number is given, a second screen of the drug exists; the two often differ.
